# Some of the results follow. The list includes weakly bound sequences.
# Molecular target: MaxL homodimer (UniProt P61244)
# Experiment: universal protein-binding microarray (PBM)
# Details: PBS-based mixture, 10 nM His-tagged protein dimer, 2% milk, 200 ng/uL BSA, 50 ng/uL salmon testes DNA, 0.02% TX-100; detection with Alexa 488 anti-His …; high values mean tight binding; most listed sequences are background and not binding sites; double strand, one strand shown
# Sequence of UniProt P61244 (P61244 whole entry): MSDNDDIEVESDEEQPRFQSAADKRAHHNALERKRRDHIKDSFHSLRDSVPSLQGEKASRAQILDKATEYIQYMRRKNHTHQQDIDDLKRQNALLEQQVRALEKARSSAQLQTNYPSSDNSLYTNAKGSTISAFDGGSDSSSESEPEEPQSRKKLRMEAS
row,Sequence,binding signal (normalized occupancy)
1,CAGGAATA,0.078
2,ACCTTTCC,0.0757
3,CCACATCC,0.0817
4,GATGCTGA,0.0746
5,CTCCTAAA,0.07
6,CCGATTCA,0.0784
7,AAACGGGG,0.0729
8,AAACGCAT,0.0815
9,GCGTAGAC,0.0676
10,AAACTGTT,0.0708
11,GACAAGTC,0.0723
12,CCTAATCC,0.0828
13,ACGCCGCC,0.074
14,GAGGAGCC,0.0696
15,GAAACGAA,0.0769
16,CAGGTAGC,0.0737
17,AGGAGTTA,0.0738
18,AGCATCGC,0.07
19,ACGTCAGA,0.0778
20,GTCGACTA,0.0792
21,ACGAGACA,0.0856
22,ATATTATA,0.0902
23,ATATAGCG,0.084
24,GCTGGCGA,0.0689
25,CGGGGGTA,0.087

row,Sequence,binding signal (normalized occupancy)
1,CCACTATA,0.0803
2,CACTGGAA,0.071
3,ACTACTGG,0.0746
4,TGAGAGCA,0.0753
5,ACCTCGCG,0.0814
6,CACCCTTC,0.0755
7,TAAACCCA,0.0765
8,CTAAGGAA,0.0741
9,GTCCTTCA,0.078
10,ATAAGCAA,0.0779
11,TAGGCGAA,0.0744
12,CCCACACA,0.0838
13,ACGTATGA,0.0837
14,AATGGAGA,0.0798
15,CAAAGATC,0.0721
16,CACCGCAA,0.0705
17,GAACCACA,0.0787
18,ACAGAGCC,0.0731
19,GGTGTGAC,0.0842
20,GAGGTGTA,0.0793
21,GCGCGGCC,0.073
22,GTTTTCCA,0.0754
23,AGGCAACG,0.0725
24,CCGCAAGC,0.0656
25,CCATCTGA,0.0849

row,Sequence,binding signal (normalized occupancy)
1,TCCTGCCA,0.0738
2,ACTGCCTA,0.0746
3,ACCGTGCT,0.0773
4,AATCCTAT,0.0766
5,AGGCAGAA,0.071
6,CGCGGGCC,0.0655
7,CTGATTCA,0.0736
8,CCGGGCCC,0.0641
9,GATCGGGA,0.0725
10,ATTTTGTG,0.0771
11,AATTCCCT,0.0737
12,GGTCGGCA,0.0675
13,CAGGAACC,0.0698
14,ATCAGGTA,0.0795
15,CAACAGTA,0.0766
16,AACGTGGG,0.114
17,ACATCTCT,0.0777
18,GGAAGGCA,0.0712
19,GGAATGTA,0.0773
20,CGGGCGAA,0.0693
21,CACTGCGC,0.0765
22,CATCGGCG,0.0726
23,AAGAGTGA,0.0797
24,ATCGTACC,0.0757
25,AAATTAGG,0.0738

row,Sequence,binding signal (normalized occupancy)
1,AACGTAAC,0.0797
2,CACGAGGG,0.134
3,ATGTGCTG,0.0914
4,CCCCGTGA,0.0848
5,GGGACCAC,0.078
6,AGTTGTTG,0.0694
7,ATAACGTG,0.113
8,ATTATATG,0.0821
9,AACGAACA,0.0776
10,AATGAATG,0.0822
11,TACGTGCA,0.0875
12,ATACCAAA,0.0737
13,TGCTAACA,0.0761
14,CTTCGCCA,0.069
15,TACGGCCA,0.0676
16,ACAGACAG,0.0721
17,CAAATACC,0.0711
18,ATTATAAG,0.0845
19,CAGGTTAA,0.0776
20,AAGTCCAT,0.0723
21,CCCAACTC,0.0726
22,CCTCTACG,0.0749
23,GCGCATAC,0.081
24,AGACAAAA,0.077
25,TCCCAGAA,0.0707

row,Sequence,binding signal (normalized occupancy)
1,ACATAGCC,0.0763
2,CACCCAAA,0.0732
3,CTATATAA,0.0834
4,ATGAATGG,0.0826
5,ATGATGTG,0.088
6,GAACCATC,0.0758
7,TCTGAAGA,0.0681
8,CGTTTCCC,0.0715
9,GTCGTAGA,0.0755
10,GCTTCTCC,0.0738
11,GGTATCAC,0.0792
12,CCGTGGCC,0.0738
13,CCCGTTAC,0.0754
14,AGCTCCAA,0.0722
15,AGGCCTCG,0.071
16,CAAGCGGA,0.0699
17,AAGCGCGG,0.0752
18,AATGTTTC,0.0727
19,GAATCTGA,0.0779
20,CGTCCGGC,0.0663
21,AAATATGG,0.088
22,AAGCAATG,0.0737
23,GATTGTTA,0.078
24,CCGCGTTC,0.0716
25,GTTTAGTA,0.0763

row,Sequence,binding signal (normalized occupancy)
1,GAGTGAGC,0.0678
2,CCAGAACA,0.0795
3,GCCCAGCC,0.0665
4,GGACCACC,0.0805
5,GACGCGCC,0.0717
6,CATCGATA,0.0857
7,TCGGCCAA,0.0676
8,ACGAGGCT,0.0805
9,CCTTTACG,0.0763
10,GTCATTTA,0.0791
11,GAATAGAC,0.0771
12,CGTAATAA,0.0849
13,AGCCGCCG,0.0691
14,ACGTACTA,0.0792
15,CTCTGGAC,0.0728
16,GCTCAGCC,0.0668
17,AAAAAAAG,0.0729
18,AATATGAC,0.0855
19,ATCATTCG,0.0804
20,CCATTCAA,0.0785
21,ACAATACG,0.0788
22,AAGCCGTG,0.0718
23,CCTAGGAG,0.07
24,AATACTTC,0.0703
25,GCTGGGAA,0.0701

row,Sequence,binding signal (normalized occupancy)
1,AGAGGGCC,0.0698
2,CAATGAAA,0.0789
3,CTAATCGC,0.0743
4,AAGAACTG,0.0705
5,ACAGAATC,0.0764
6,ACGTCATG,0.0885
7,GGATCGAA,0.0695
8,AATCGACT,0.0753
9,AGGACTTA,0.0758
10,TAAGCAAA,0.0761
11,TAACCGAA,0.0753
12,AGTTAATA,0.0765
13,CTCGCTGC,0.0727
14,AGATGCCA,0.0772
15,CTTATTTA,0.0763
16,CACGTATG,0.0833
17,GTCTGAAC,0.0742
18,CCGCTGCA,0.0719
19,TCACAGGA,0.0749
20,ATAGGCTA,0.0718
21,CGTCGGAG,0.0693
22,CCCGCAAC,0.0713
23,AGTGCCAC,0.0792
24,AGCTGACA,0.0754
25,CACGATGG,0.0884

row,Sequence,binding signal (normalized occupancy)
1,GTTCTGAA,0.0695
2,CAGAATAA,0.079
3,ACATTTAA,0.0785
4,CGGGCACC,0.0692
5,CCGGGTTA,0.0708
6,AACTGCCG,0.0701
7,CCCAACAA,0.0757
8,CGAAATCA,0.0721
9,CGTAGAAA,0.0757
10,AATAGTTG,0.0772
11,GAGTTAGA,0.073
12,CTTTTGCA,0.0687
13,AGGCACTG,0.0696
14,ACCATTTA,0.0797
15,AATATCTC,0.0744
16,ATTTTTCG,0.0793
17,CACCACGG,0.0774
18,AAATCACA,0.0795
19,CGTCTCAC,0.079
20,GATTTTAA,0.0718
21,TAAAAATA,0.0717
22,AAGTGGAT,0.0727
23,AACCGAGA,0.0705
24,AATCCCAA,0.0748
25,GGAAACAA,0.0763

row,Sequence,binding signal (normalized occupancy)
1,ACTCTACG,0.0734
2,ATACAAAA,0.078
3,GCGAGGCA,0.0757
4,CTTCAAAA,0.0709
5,CATCATAG,0.0846
6,CAGTACAG,0.0802
7,ACGCTAGG,0.0754
8,TCTGCTCA,0.0738
9,CGTCTTGA,0.0702
10,ATTGGCTC,0.076
11,ACCCTCGC,0.0757
12,GGATAACA,0.0808
13,ACCTAATA,0.0777
14,TTGCGAAA,0.0693
15,AAAGTTCA,0.0739
16,CCAGTCGA,0.0666
17,AAGTTACC,0.0714
18,ATAGCCTC,0.0788
19,AAAAAAAC,0.0784

# Reference: paper PMC4242493
